Results: PMC4336329 (PLoS ONE, 2015)
Hit rate of the full screen: of about 310,000 compounds, about 2,200 (0.71%) showed an effect of 50% or more. The effect is printed as a negative number. The list shows a part of the results.

These compounds were tested against human ether-à-go-go-related gene (hERG) potassium channel (human, UniProt Q12809) (assay: primary screen, population patch clamp on CHO cells stably expressing hERG).
Chain of human ether-à-go-go-related gene (hERG) potassium channel (Q12809 whole entry, looked up): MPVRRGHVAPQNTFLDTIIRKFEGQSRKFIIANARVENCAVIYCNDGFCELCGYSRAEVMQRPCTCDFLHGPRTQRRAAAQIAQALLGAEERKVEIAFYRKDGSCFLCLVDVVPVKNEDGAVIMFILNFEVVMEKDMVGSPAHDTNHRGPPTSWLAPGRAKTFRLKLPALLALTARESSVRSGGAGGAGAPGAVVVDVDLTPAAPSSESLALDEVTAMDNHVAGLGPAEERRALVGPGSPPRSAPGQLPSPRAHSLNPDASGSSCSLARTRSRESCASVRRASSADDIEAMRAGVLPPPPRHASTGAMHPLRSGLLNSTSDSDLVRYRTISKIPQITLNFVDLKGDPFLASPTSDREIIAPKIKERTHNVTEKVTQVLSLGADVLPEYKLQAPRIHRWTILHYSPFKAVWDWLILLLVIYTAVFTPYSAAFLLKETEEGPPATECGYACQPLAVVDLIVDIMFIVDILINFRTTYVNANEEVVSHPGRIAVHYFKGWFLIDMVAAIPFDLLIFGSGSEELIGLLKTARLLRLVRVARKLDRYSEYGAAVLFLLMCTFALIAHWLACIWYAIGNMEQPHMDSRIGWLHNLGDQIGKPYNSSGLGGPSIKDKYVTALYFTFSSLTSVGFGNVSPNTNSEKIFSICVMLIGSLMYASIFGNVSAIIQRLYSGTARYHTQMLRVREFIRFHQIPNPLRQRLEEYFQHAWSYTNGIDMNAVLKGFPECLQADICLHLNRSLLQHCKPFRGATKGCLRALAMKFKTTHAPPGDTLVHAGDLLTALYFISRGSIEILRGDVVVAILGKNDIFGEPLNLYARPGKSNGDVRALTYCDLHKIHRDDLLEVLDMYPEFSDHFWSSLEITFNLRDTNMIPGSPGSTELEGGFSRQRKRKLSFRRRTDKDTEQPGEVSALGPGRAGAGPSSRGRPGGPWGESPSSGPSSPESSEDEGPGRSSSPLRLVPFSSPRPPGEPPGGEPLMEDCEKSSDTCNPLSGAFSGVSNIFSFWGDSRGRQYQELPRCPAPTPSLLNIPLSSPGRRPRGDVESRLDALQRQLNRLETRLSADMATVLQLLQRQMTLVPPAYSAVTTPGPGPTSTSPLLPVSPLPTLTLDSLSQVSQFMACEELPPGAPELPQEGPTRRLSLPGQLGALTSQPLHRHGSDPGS

Compound | hERG current change (%, negative = inhibition) at 1uM
CCCN1Cc2cccc(C(=O)Nc3ccc(-c4nc5ccccc5[nH]4)cc3)c2C1=O | 10.4%
COc1cc(C(=O)Nc2cccc3c2CCCC3)cc(OC)c1OC | 10.3%
O=C(NC(=S)Nc1cccc(NC(=S)NC(=O)c2ccco2)n1)c1ccco1 | 16.4%
O=C(NCc1ccccc1)C(c1cccnc1)N(C(=O)c1ccccn1)c1cccc(F)c1 (stereo not drawn) | 0.684%
CCOc1ccc(C(CC(=O)O)NC(=O)C(Sc2ccccc2)c2ccccc2)cc1 (stereo not drawn) | 13.1%
Nc1nc(CN2CCN(Cc3ccc4c(c3)OCO4)CC2)nc(Nc2ccccc2)n1 | -77.4%
Cc1ccc(-n2nnnc2-c2cnn(-c3ccc(F)cc3)c2C(F)(F)F)cc1 | -1.22%
Cc1cccc(NC(=O)N2CCC(NC(=O)C3CCCCC3)CC2)c1 | 10.9%
CC1(C)CC(=O)C(N=Nc2cc(C(F)(F)F)ccc2Cl)=C(O)C1 | 8.53%
Cn1c(=O)c2sccc2n2c(CCCC(=O)NCCc3ccc(S(N)(=O)=O)cc3)nnc12 | 10.9%
CCCN1C2=NCCCN2c2ccccc21.Cl | 7.07%
CCOC(=O)c1cnc(-c2ccccc2)nc1N | 5.65%
Nc1nc(NCc2ccco2)nc(Nc2cccc(F)c2)c1[N+](=O)[O-] | 18.1%
CC1CCCN(S(=O)(=O)c2ccc(C(=O)Nc3nnc(C4CC4)o3)cc2)C1 (stereo not drawn) | 11.7%
Cc1cccc(OCC(=O)NNS(=O)(=O)c2ccccc2F)c1 | 11.6%
Cc1ccccc1OC(C)C(=O)NCc1cccnc1 (stereo not drawn) | 6.68%
COc1ccccc1NS(=O)(=O)c1cc(NC(=O)c2ccc(=O)[nH]c2)ccc1N1CCOCC1 | -0.586%
Cc1cc(C)c(S(=O)(=O)N(C)CC(=O)NCc2cccnc2)c(C)c1 | 4.04%
CCCC(=O)c1cc2c(cc1NC(=O)CC)OCCO2 | 0.999%
CCSC1=N/C(=C\c2ccc(OC)cc2)C(=O)N1 | 9.9%
Cc1c(NC(=O)Cc2noc3ccccc23)cccc1[N+](=O)[O-] | 12%
COc1ccc(C(=O)N/N=C/c2ccc(OC)c(CN3CCN(c4ccc(F)cc4)CC3)c2)cc1 | -83.5%

Compound | hERG current change (%, negative = inhibition) at 1uM
O=C(O)/C(=C\c1cn(-c2ccccc2)nc1-c1cccnc1)NC(=O)c1ccccc1 | 11.5%
O=C(Nc1ccc(CN2CCOCC2)cc1)c1cc2ccccn2n1 | 5.71%
Cc1cc(CNC(=O)C2CCC(=O)N(Cc3cccc(C(F)(F)F)c3)C2)no1 (stereo not drawn) | 0.0283%
CCCN1CCN(C(=O)C(C)n2nc(C)c3sc4ccccc4c3c2=O)CC1 (stereo not drawn) | 6.74%
CCCCn1nnnc1SCC(=O)NNC(=O)c1ccco1 | 5.55%
CC(C)CC(=O)c1c[nH]c(C(=O)NCCc2ccccn2)c1 | 2.95%
COc1cccc(NC(=O)C2CCCN2C(=O)Nc2cccc(F)c2)c1 (stereo not drawn) | 11%
COCCNC(=O)c1ccccc1NC(=O)c1ccccc1N(C)S(=O)(=O)c1ccc(C)cc1 | 8.36%
O=C(c1ccc(CS(=O)Cc2ccccc2Cl)o1)N1CCN(C2CCCCC2)CC1 (stereo not drawn) | 13.2%
COCCNc1ccc(S(=O)(=O)N2CCCC2)cc1[N+](=O)[O-] | -1.4%
O=C(Cc1cccs1)N1CCN(c2cccc(Cl)c2)CC1 | 9.68%
CC(C)c1nnc(NC(=O)c2nc(S(=O)(=O)Cc3ccc(F)cc3)ncc2Cl)s1 | -3.54%
CCOc1ccccc1CN1CCC(n2nccc2NC(=O)CCc2ccccc2)CC1 | 2.97%
CS(=O)(=O)Oc1ccc(Br)cc1/C=C1/N=C(c2ccco2)OC1=O | 14%
O=c1[nH]c(C2CCN(S(=O)(=O)/C=C/c3ccccc3)CC2)nc2c1nnn2Cc1ccccc1 | 8.49%
CCC1(CC)C(=O)C=CNC1=O | -0.937%
CC1=NN(c2ccccc2)C(=O)/C1=C/c1c(C)[nH]n(-c2ccc(C)cc2)c1=O | -5.54%
Cn1c(Cl)cnc1C1CC(=O)c2cc(Cl)ccc2O1 (stereo not drawn) | 0.7%
O=C(NC1CCCc2ccccc21)C1CCN(S(=O)(=O)c2ccccc2)CC1 (stereo not drawn) | 14.5%
O=C(O)CSc1nc2ccc(Cl)cc2[nH]1 | 14.5%
CC(Sc1nnc(CC(C)c2ccccc2)n1N)C(N)=O (stereo not drawn) | 5.23%
COC(C[C@H]1O[C@@H]1C(=O)COCc1ccccc1)OC | 5.82%

Compound | hERG current change (%, negative = inhibition) at 1uM
CCOC(=O)C1CCN(C(=O)Nc2ccc3nc(-c4ccco4)c(-c4ccco4)nc3c2)CC1 | -6.82%
O=C(NCc1cccc(Cl)c1)c1ccc(CS(=O)Cc2ccccc2Cl)o1 (stereo not drawn) | 10.8%
Cn1c(=O)[nH]c(=O)c2c1nc(Br)n2CCSc1nnnn1-c1ccccc1 | 9.49%
COC(=O)c1ccc(C(=S)N2CCCCC2)cc1 | 1.19%
O=C(CSc1nnc(-c2ccc(Cl)cc2)n1Cc1ccco1)Nc1ccc2c(c1)OCCO2 | 1.41%
C[N+](C)(CC#Cc1ccccc1)CC(=O)c1ccc(Cl)cc1 | -5.74%
CCOc1ccc(NC(=O)[C@@H]2CCCN2C(=O)c2cccs2)cc1S(=O)(=O)N1CCCCC1 | 12.6%
CC(C)(C)NC(=O)NC(=O)COc1ccc(Br)cc1Br | -8.26%
CCOC(=O)C1CCN(C(=O)c2cc3c(ccc4ccccc43)o2)CC1 | 3.1%
O=C(NC1CCN(Cc2ccccc2)CC1)C1COc2ccccc2O1 (stereo not drawn) | -32%
COc1ccc(C(=O)Nc2sc(C)c(-c3ccccc3)c2C#N)cc1OC | 8.98%
COc1ccc(NC(=O)c2ccc3c(c2)OCO3)cc1 | 17.1%
O=C(Nc1ccnn1C1CCN(Cc2ccccc2)CC1)C1CCOC1 (stereo not drawn) | 19.8%
Cc1cc(NC(=O)CSc2ncc(CO)n2Cc2ccc(F)cc2)no1 | 16.1%
O=C(NCCCN=C1NS(=O)(=O)c2ccccc21)c1ccncc1 | -5.21%
Cc1cc(C)nc(/N=C(\N)N(Cc2ccccc2)Cc2ccccc2)n1 | -31.2%
O=C(NCCCN1CCOCC1)C1CCN(S(=O)(=O)c2ccccc2)CC1 | 13.1%
COC(=O)CC(NC(=O)Nc1ccccc1F)c1ccc2c(c1)OCO2 (stereo not drawn) | 16%
Brc1ccc(-c2ccc(/C=N/Nc3nc4ccccc4[nH]3)o2)cc1 | 9.46%
CCN1CCN(C(=O)c2ccc3c(Cl)c4c(nc3c2)CCCC4)CC1 | 11.2%
COc1ccc(-c2cn[nH]c2-c2ccc(OC)cc2)cc1 | 15.2%
Cc1ccc2cccc(OCCOCCOc3ccccc3Br)c2n1 | 8.42%

Compound | hERG current change (%, negative = inhibition) at 1uM
O=C(CN1CCN(S(=O)(=O)c2cccc(Cl)c2)CC1)NCC1(N2CCOCC2)CCCCC1 | 5.88%
CC(C)CCC(C)NC(=O)c1ccc2nccnc2c1 (stereo not drawn) | 10.6%
Cc1ccccc1NC(=O)C1CCCN(S(=O)(=O)c2cnc[nH]2)C1 (stereo not drawn) | 2.01%
O=C(O)c1ccc(/C=N\Nc2ccc(S(=O)(=O)N3CCOCC3)cc2[N+](=O)[O-])cc1 | 4.96%
Cc1n[nH]c(=S)n1/N=C/c1ccc(-c2ccc(Cl)cc2)o1 | 13.2%
Cc1cc(NCCCN)nc(-c2ccccc2O)n1 | 11.4%
CC1(C)CC(=O)C(C=NCCN2CCN(CC(=O)Nc3ccccc3)CC2)=C(O)C1 | 2.05%
COC(=O)/C(=C\c1cc(OC)c(OC)c(OC)c1)c1nc2ccccc2[nH]1.Cl | 8.47%
CCOc1cc(N2CCOCC2)c(OCC)cc1NC(=O)COC(=O)c1cc(C)oc1C | 4.66%
Cc1ccc(-c2cc(C(=O)N/N=C/c3c(C)nn(C)c3C)c3ccccc3n2)cc1C | 15.8%
CCCC(C)C(=O)Nc1nnc(CCc2ccccc2)s1 (stereo not drawn) | 6.11%
COc1cc(NC(=O)CN2CCN(S(=O)(=O)c3ccc(C(C)C)cc3)CC2)cc(OC)c1 | -12.1%
COc1ccc(C2N=C(c3ccccc3)C(C)(C)N2O)cc1 (stereo not drawn) | 14.6%
O=C1CN(C(=O)COc2ccc([N+](=O)[O-])cc2Cl)c2ccccc2N1 | -8.16%
CCOc1ccccc1N(CC(=O)NC1CCCC1)C(=O)CNC(=O)c1cccs1 | 1.7%
Cc1onc(-c2c(Cl)cccc2Cl)c1NC(=O)NN(C)C | 11.9%
Cc1cc2oc(=O)cc(CN3CCCCC3)c2cc1C | 14%
c1ccc(-c2ccc(-c3ccccn3)s2)nc1 | 2.22%
CC(=O)OCC(=O)[C@@]12OC(C)(C)O[C@@H]1CC1C3C[C@H](F)C4=CC(=O)C=CC4(C)[C@@]3(F)C(O)CC12C (stereo partly drawn) | 15.4%
Cl.OC(CNCc1ccc(-c2ccccc2)cc1)c1ccccc1 (stereo not drawn) | 5.21%
COc1ccc(CC2(CO)COc3ccccc3C2=O)cc1 (stereo not drawn) | 0.144%
